Assay results from the BET-seq Pho4 binding data (Le et al. 2018).
The list shows a part of the results. These are noisy estimates, calculated here from bound and input reads.

target: T1, Pho4 (S. cerevisiae) (UniProt P07270); assay: relative binding free energy (BET-seq); higher = weaker binding; details: reference: library average
T1 sequence: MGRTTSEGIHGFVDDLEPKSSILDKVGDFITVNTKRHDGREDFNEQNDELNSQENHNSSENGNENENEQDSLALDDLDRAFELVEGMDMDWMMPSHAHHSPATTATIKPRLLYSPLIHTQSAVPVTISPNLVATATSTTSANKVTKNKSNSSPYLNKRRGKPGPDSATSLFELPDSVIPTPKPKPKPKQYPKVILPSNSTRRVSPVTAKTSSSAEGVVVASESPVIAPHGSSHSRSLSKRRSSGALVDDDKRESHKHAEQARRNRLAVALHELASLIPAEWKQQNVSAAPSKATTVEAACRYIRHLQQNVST

Row | Sequence | relative binding free energy
1 | GGGGGCACGTGACTTT | 0.03 kcal/mol
2 | TGAGGCACGTGGCGCG | -0.23 kcal/mol
3 | CTGAACACGTGTATTT | 0.15 kcal/mol
4 | CGGGCCACGTGGAAGG | 0.02 kcal/mol
5 | AGGATCACGTGGTCTG | 0.14 kcal/mol
6 | TACTTCACGTGTGTAA | 0.21 kcal/mol
7 | GTTCGCACGTGGAGAT | 0.1 kcal/mol
8 | GATTACACGTGTGTGA | 0.26 kcal/mol
9 | GATGCCACGTGTGGTA | -0.04 kcal/mol
10 | ATTCGCACGTGTATAT | -0.02 kcal/mol
11 | ATCGGCACGTGGAGGG | -0.08 kcal/mol
12 | GTTGGCACGTGGCGTG | -0.2 kcal/mol
13 | GTGGGCACGTGATGCA | 0.06 kcal/mol
14 | ATTTGCACGTGTAGTC | 0.24 kcal/mol
15 | AATTACACGTGTATGC | 0.12 kcal/mol
16 | GGGACCACGTGGATGG | -0.08 kcal/mol
17 | TTGGACACGTGGATTT | 0.07 kcal/mol
18 | TTCGGCACGTGGGGGG | -0.09 kcal/mol
19 | TGTGCCACGTGGTTGT | -0.11 kcal/mol
20 | ATCAGCACGTGTAGGT | -0.01 kcal/mol
21 | GGTGGCACGTGCGGTT | -0.02 kcal/mol
22 | AGTAGCACGTGACGTT | 0.22 kcal/mol
23 | GGTGCCACGTGTTATT | 0.14 kcal/mol
24 | TTTCGCACGTGCTTAT | -0.04 kcal/mol
25 | TGGTACACGTGGATTC | 0.16 kcal/mol

Row | Sequence | relative binding free energy
26 | CATGTCACGTGAATGT | 0.21 kcal/mol
27 | TACGTCACGTGAGGTG | 0.28 kcal/mol
28 | CTAATCACGTGAGGTA | 0.35 kcal/mol
29 | TGTGTCACGTGATCGA | 0.02 kcal/mol
30 | AGGGACACGTGTGGAC | 0.08 kcal/mol
31 | AAGGGCACGTGATCTG | -0.2 kcal/mol
32 | TAAAGCACGTGAGGGC | 0.13 kcal/mol
33 | GGAAGCACGTGGGTGA | -0.19 kcal/mol
34 | CAGGGCACGTGGCCGG | -0.27 kcal/mol
35 | ATAGGCACGTGTTATT | -0.22 kcal/mol
36 | TCGAGCACGTGGGTGA | -0.2 kcal/mol
37 | AAGAGCACGTGATATG | 0.07 kcal/mol
38 | TAGCCCACGTGTGGGT | -0.01 kcal/mol
39 | GGTGTCACGTGACGGC | 0.18 kcal/mol
40 | TGATTCACGTGGTGAC | 0.26 kcal/mol
41 | ATTTGCACGTGCGTTA | -0.2 kcal/mol
42 | GTTCGCACGTGAGGCT | 0.28 kcal/mol
43 | CATTGCACGTGGTGTC | 0.07 kcal/mol
44 | GGATGCACGTGGGTTT | 0 kcal/mol
45 | TACTGCACGTGTAGGT | 0.01 kcal/mol
46 | AGGTGCACGTGTAGTA | 0 kcal/mol
47 | ATTAGCACGTGGTTGG | -0.13 kcal/mol
48 | ATTTTCACGTGATGCG | 0.31 kcal/mol
49 | ACGAGCACGTGTGTTT | -0.09 kcal/mol
50 | CTTAGCACGTGGTGCT | -0.05 kcal/mol

Row | Sequence | relative binding free energy
51 | TTTTGCACGTGATACG | 0.08 kcal/mol
52 | GTTATCACGTGAGCAG | 0.43 kcal/mol
53 | GGGGACACGTGTTAAT | 0.08 kcal/mol
54 | TGGAACACGTGGCTTA | 0 kcal/mol
55 | TCCGTCACGTGGGGTG | -0.04 kcal/mol
56 | TCGAGCACGTGAAGGG | 0.1 kcal/mol
57 | GGTCGCACGTGTTATA | 0.03 kcal/mol
58 | CCATGCACGTGGGTGG | -0.23 kcal/mol
59 | CAATGCACGTGTGTTG | -0.07 kcal/mol
60 | TGATGCACGTGGGTTC | -0.04 kcal/mol
61 | TTAGTCACGTGGATTC | 0.1 kcal/mol
62 | TCATTCACGTGTTATA | 0.23 kcal/mol
63 | CTTAGCACGTGGAGGT | -0.08 kcal/mol
64 | TACGTCACGTGTAAGT | 0.2 kcal/mol
65 | TTATGCACGTGATTAA | -0.14 kcal/mol
66 | GTGGGCACGTGTTGGT | 0.05 kcal/mol
67 | TTCTGCACGTGGAAGG | 0.18 kcal/mol
68 | GGCGACACGTGTGGCG | 0.13 kcal/mol
69 | ATGTACACGTGAGGCT | 0.14 kcal/mol
70 | GTAGGCACGTGGCGGG | -0.19 kcal/mol
71 | GACGGCACGTGAGGTA | 0.36 kcal/mol
72 | GGTTGCACGTGTATAG | 0.07 kcal/mol
73 | ACATGCACGTGTTGAG | -0.02 kcal/mol
74 | TTGGTCACGTGTCGCT | 0.23 kcal/mol
75 | GTTATCACGTGTGATT | 0.21 kcal/mol

Row | Sequence | relative binding free energy
76 | CATTACACGTGTTTGG | 0.03 kcal/mol
77 | TTGTTCACGTGGAAGA | 0.23 kcal/mol
78 | TACGTCACGTGTGTAT | 0.07 kcal/mol
79 | CGGTTCACGTGGTGCA | 0.12 kcal/mol
80 | TTTTACACGTGAGCGT | 0.31 kcal/mol
81 | TGATCCACGTGGTGGA | -0.05 kcal/mol
82 | CTGGACACGTGAGAGT | 0.21 kcal/mol
83 | AGTTGCACGTGCAATG | 0.04 kcal/mol
84 | TATTGCACGTGCATTG | -0.03 kcal/mol
85 | TTATGCACGTGTGTGA | 0.09 kcal/mol
86 | GGGCTCACGTGCTGGG | 0.13 kcal/mol
87 | TTACTCACGTGGATGT | 0.06 kcal/mol
88 | TCGTACACGTGGTGTT | -0.06 kcal/mol
89 | TATTGCACGTGGCTTG | -0.14 kcal/mol
90 | ATTTACACGTGGGAGT | 0.06 kcal/mol
91 | GCTGGCACGTGCATGT | -0.09 kcal/mol
92 | GGTATCACGTGGTTTT | 0.15 kcal/mol
93 | AAAGTCACGTGTTTGG | -0.01 kcal/mol
94 | GTGTACACGTGTTTTC | 0.07 kcal/mol
95 | AAGGACACGTGAGGTT | 0.22 kcal/mol
96 | CAGGCCACGTGAGGGT | 0.03 kcal/mol
97 | TCGTGCACGTGGGTTT | -0.08 kcal/mol
98 | TCGAACACGTGGGGTT | -0.18 kcal/mol
99 | ATGGTCACGTGGCAGT | 0.06 kcal/mol
100 | GCGGACACGTGCGGGT | 0.05 kcal/mol

Row | Sequence | relative binding free energy
101 | GTGTACACGTGAGGTG | 0.19 kcal/mol
102 | TGCGCCACGTGCGGGG | -0.26 kcal/mol
103 | ATAGGCACGTGGATTT | -0.07 kcal/mol
104 | AAATTCACGTGTAAGG | 0.26 kcal/mol
105 | TTACGCACGTGCGGTG | -0.31 kcal/mol
106 | TTTCGCACGTGCTGTG | -0.12 kcal/mol
107 | CAAGACACGTGGGTGG | -0.05 kcal/mol
108 | TTGTGCACGTGGTAGG | -0.12 kcal/mol
109 | GTTAGCACGTGGCTAT | -0.18 kcal/mol
110 | GACTTCACGTGGGTTA | 0.25 kcal/mol
111 | TTCATCACGTGAGGAG | 0.38 kcal/mol
112 | CTTGACACGTGATGGT | 0.02 kcal/mol
113 | ATCGGCACGTGATGGT | -0.07 kcal/mol
114 | ATAAGCACGTGACGGG | 0.2 kcal/mol
115 | TGAATCACGTGGGCTG | 0 kcal/mol
116 | GGGGTCACGTGGTTCA | 0.24 kcal/mol
117 | CAGGGCACGTGTGGGT | 0.01 kcal/mol
118 | CTGTGCACGTGTATTG | -0.06 kcal/mol
119 | GACGGCACGTGTGGTC | 0.08 kcal/mol
120 | ATCAGCACGTGTAGTG | -0.18 kcal/mol
121 | GTAGACACGTGTCGGT | -0.08 kcal/mol
122 | GGCGTCACGTGTGCTG | 0.11 kcal/mol
123 | TTCGACACGTGAGGGG | 0.18 kcal/mol
124 | GGTTTCACGTGAGTCA | 0.51 kcal/mol
125 | AATTTCACGTGACGTG | 0.33 kcal/mol

Row | Sequence | relative binding free energy
126 | TGCTGCACGTGCTTGG | -0.23 kcal/mol
127 | TTTGACACGTGCGACG | 0.2 kcal/mol
128 | TTTTTCACGTGGGTGA | 0.27 kcal/mol
129 | ATGGTCACGTGGAGTA | -0.02 kcal/mol
130 | GTTGGCACGTGAGCGT | 0.08 kcal/mol
131 | TCGTTCACGTGTTCAG | 0.32 kcal/mol
132 | GAAATCACGTGATGGT | 0.32 kcal/mol
133 | TGGATCACGTGATAAG | 0.4 kcal/mol
134 | GTTGGCACGTGTTGTT | -0.03 kcal/mol
135 | ATGTGCACGTGAGGCG | 0.16 kcal/mol
136 | TTTAACACGTGTAATG | 0.1 kcal/mol
137 | TATTACACGTGCAGTT | 0.16 kcal/mol
138 | GTTTGCACGTGAGTAC | 0.21 kcal/mol
139 | ATGTTCACGTGCGTCT | 0.21 kcal/mol
140 | AAGGGCACGTGAGTTT | 0.15 kcal/mol
141 | ATGGACACGTGTTCTT | 0.03 kcal/mol
142 | CGGGTCACGTGGTGTT | 0.08 kcal/mol
143 | GCGGGCACGTGCGGTG | -0.05 kcal/mol
144 | GTGGTCACGTGATCGT | 0.25 kcal/mol
145 | AATTGCACGTGGGGTG | -0.07 kcal/mol
146 | CGGGCCACGTGGTGGC | -0.21 kcal/mol
